{
  "source": "the supplement of paper PMC8728848",
  "binders": {"B1": {"name": "PV12658A-bvu-496-32-496 (Bacteroides vulgatus) (protein)", "chain": "DLDGAITTPAAVELALNGIYYSLPGNGFNVIFPTVSGSFKAGTMWRQEIVSAGNAVYYSERMLPTLSFSDATEWDADYAVIKNANFLETACNRMSDGEFSGNRRAEVLGEIAYLRALAYFNILVRYCEFWDMNSEYGVVMRNEAPSVSNALKARSSVADSYQYILDQLEIAIEKAPDWKKLSQASKEAAKALKARVLLYAGKYTEAVAAVNDAIDTNSPLPEANYGDVFDKFSTTKEILFARVFDQKDATNTSTRQQCYGNSPTKKQGYWGPTNEYVELVGDDPRADAIFSKVDSLMDSRSSAVAYNLKSVKKLLNDANDMPVIFSRVSELYLIKAEALYRSGASISEAYAPIRKLRERAGAEIILPANNEELETAIFNEWMLELSFENWHEWFAMIRFAGYTEKPDFTRLLALNKTLREALEKEYEKSEAQGDNYYQRIIDRRIDAIPSSEISSNLECKQNPGY"}},
  "experiment_in_all_cases": "glycan array binding signal (z-score within array); higher = stronger binding",
  "settings_in_all_cases": "glycan notation: IUPAC condensed, linker removed",
  "key": {"[1]": {"target": "Fuc(a1-3)GlcNAc", "procedure,_shortened": "(§1)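 Negative Z-scores can be read as non-binding. The Z-score is calculated within each array and then averaged across arrays of one protein sequence at different concentrations or buffers and across linkers. Arrays, 3228 in all, were curated from the Consortium for Functional Glycomics database and kept only where the protein sequence was available.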"}, "[2]": {"target": "Fuc(a1-3)[Gal(b1-4)]Glc6S", "procedure,_shortened": "as §1"}, "[3]": {"target": "Fuc(a1-3)[Gal(b1-4)]GlcNAc", "procedure,_shortened": "as §1"}, "[4]": {"target": "Fuc(a1-3)[Gal(b1-4)]GlcNAc(b1-2)Man", "procedure,_shortened": "as §1"}, "[5]": {"target": "Fuc(a1-3)[Gal(b1-4)]GlcNAc(b1-2)Man(a1-3)[Fuc(a1-3)[Gal(b1-4)]GlcNAc(b1-2)Man(a1-6)]Man(b1-4)GlcNAc(b1-4)GlcNAc", "procedure,_shortened": "as §1"}, "[6]": {"target": "Fuc(a1-3)[Gal(b1-4)]GlcNAc(b1-2)Man(a1-3)[Fuc(a1-3)[Gal(b1-4)]GlcNAc(b1-2)Man(a1-6)]Man(b1-4)GlcNAc(b1-4)[Fuc(a1-6)]GlcNAc", "procedure,_shortened": "as §1"}, "[7]": {"target": "Fuc(a1-3)[Gal(b1-4)]GlcNAc(b1-3)Gal(b1-3)[Fuc(a1-4)]GlcNAc", "procedure,_shortened": "as §1"}, "[8]": {"target": "Fuc(a1-3)[Gal(b1-4)]GlcNAc(b1-3)Gal(b1-4)[Fuc(a1-3)]GlcNAc", "procedure,_shortened": "as §1"}, "[9]": {"target": "Fuc(a1-3)[Gal(b1-4)]GlcNAc(b1-3)Gal(b1-4)[Fuc(a1-3)]GlcNAc(b1-3)Gal(b1-4)[Fuc(a1-3)]GlcNAc", "procedure,_shortened": "as §1"}, "[10]": {"target": "Fuc(a1-3)[Gal(b1-4)]GlcNAc(b1-3)GalNAc", "procedure,_shortened": "as §1"}, "[11]": {"target": "Fuc(a1-3)[Gal(b1-4)]GlcNAc(b1-6)GalNAc", "procedure,_shortened": "as §1"}, "[12]": {"target": "Fuc(a1-3)[Gal(b1-4)]GlcNAc(b1-6)[Gal(b1-3)GlcNAc(b1-3)]Gal(b1-4)Glc", "procedure,_shortened": "as §1"}, "[13]": {"target": "Fuc(a1-3)[Gal(b1-4)]GlcNAc6S", "procedure,_shortened": "as §1"}, "[14]": {"target": "Fuc(a1-3)[Gal3S(b1-4)]Glc", "procedure,_shortened": "as §1"}, "[15]": {"target": "Fuc(a1-3)[Gal3S(b1-4)]GlcNAc", "procedure,_shortened": "as §1"}, "[16]": {"target": "Fuc(a1-3)[Gal3S(b1-4)]GlcNAc6S", "procedure,_shortened": "as §1"}, "[17]": {"target": "Fuc(a1-3)[GalNAc(b1-4)]GlcNAc", "procedure,_shortened": "as §1"}, "[18]": {"target": "Fuc(a1-3)[GalNAc(b1-4)]GlcNAc6S", "procedure,_shortened": "as §1"}, "[19]": {"target": "Fuc(a1-4)GlcNAc", "procedure,_shortened": "as §1"}, "[20]": {"target": "Fuc(b1-3)GlcNAc", "procedure,_shortened": "as §1"}, "[21]": {"target": "Gal(a1-2)Gal", "procedure,_shortened": "as §1"}, "[22]": {"target": "Gal(a1-3)Gal", "procedure,_shortened": "as §1"}, "[23]": {"target": "Gal(a1-3)Gal(b1-3)GlcNAc", "procedure,_shortened": "as §1"}, "[24]": {"target": "Gal(a1-3)Gal(b1-3)GlcNAc(b1-2)Man", "procedure,_shortened": "as §1"}, "[25]": {"target": "Gal(a1-3)Gal(b1-3)GlcNAc(b1-2)Man(a1-3)[Gal(a1-3)Gal(b1-3)GlcNAc(b1-2)Man(a1-6)]Man(b1-4)GlcNAc(b1-4)GlcNAc", "procedure,_shortened": "as §1"}, "[26]": {"target": "Gal(a1-3)Gal(b1-3)GlcNAc(b1-3)GalNAc", "procedure,_shortened": "as §1"}, "[27]": {"target": "Gal(a1-3)Gal(b1-3)GlcNAc(b1-6)GalNAc", "procedure,_shortened": "as §1"}, "[28]": {"target": "Gal(a1-3)Gal(b1-3)[Fuc(a1-4)]GlcNAc(b1-2)Man(a1-3)[Gal(a1-3)Gal(b1-3)[Fuc(a1-4)]GlcNAc(b1-2)Man(a1-6)]Man(b1-4)GlcNAc(b1-4)GlcNAc", "procedure,_shortened": "as §1"}, "[29]": {"target": "Gal(a1-3)Gal(b1-4)Glc", "procedure,_shortened": "as §1"}, "[30]": {"target": "Gal(a1-3)Gal(b1-4)GlcNAc", "procedure,_shortened": "as §1"}},
  "note": "The other results are listed elsewhere or left out.",
  "data": [
    {"binder": "B1", "values": [
      {"measurement": "glycan array binding signal (z-score)", "setting": "[1]", "result": -0.156},
      {"measurement": "glycan array binding signal (z-score)", "setting": "[2]", "result": -0.036},
      {"measurement": "glycan array binding signal (z-score)", "setting": "[3]", "result": -0.244},
      {"measurement": "glycan array binding signal (z-score)", "setting": "[4]", "result": -0.379},
      {"measurement": "glycan array binding signal (z-score)", "setting": "[5]", "result": -0.307},
      {"measurement": "glycan array binding signal (z-score)", "setting": "[6]", "result": -0.15},
      {"measurement": "glycan array binding signal (z-score)", "setting": "[7]", "result": -0.492},
      {"measurement": "glycan array binding signal (z-score)", "setting": "[8]", "result": -0.25},
      {"measurement": "glycan array binding signal (z-score)", "setting": "[9]", "result": -0.323},
      {"measurement": "glycan array binding signal (z-score)", "setting": "[10]", "result": -0.278},
      {"measurement": "glycan array binding signal (z-score)", "setting": "[11]", "result": -0.147},
      {"measurement": "glycan array binding signal (z-score)", "setting": "[12]", "result": -0.544},
      {"measurement": "glycan array binding signal (z-score)", "setting": "[13]", "result": 0.065},
      {"measurement": "glycan array binding signal (z-score)", "setting": "[14]", "result": -0.264},
      {"measurement": "glycan array binding signal (z-score)", "setting": "[15]", "result": -0.153},
      {"measurement": "glycan array binding signal (z-score)", "setting": "[16]", "result": -0.244},
      {"measurement": "glycan array binding signal (z-score)", "setting": "[17]", "result": 0.311},
      {"measurement": "glycan array binding signal (z-score)", "setting": "[18]", "result": -0.267},
      {"measurement": "glycan array binding signal (z-score)", "setting": "[19]", "result": -0.159},
      {"measurement": "glycan array binding signal (z-score)", "setting": "[20]", "result": -0.21},
      {"measurement": "glycan array binding signal (z-score)", "setting": "[21]", "result": -0.348},
      {"measurement": "glycan array binding signal (z-score)", "setting": "[22]", "result": -0.173},
      {"measurement": "glycan array binding signal (z-score)", "setting": "[23]", "result": 3.81},
      {"measurement": "glycan array binding signal (z-score)", "setting": "[24]", "result": -0.441},
      {"measurement": "glycan array binding signal (z-score)", "setting": "[25]", "result": -0.218},
      {"measurement": "glycan array binding signal (z-score)", "setting": "[26]", "result": -0.252},
      {"measurement": "glycan array binding signal (z-score)", "setting": "[27]", "result": -0.262},
      {"measurement": "glycan array binding signal (z-score)", "setting": "[28]", "result": -0.342},
      {"measurement": "glycan array binding signal (z-score)", "setting": "[29]", "result": -0.267},
      {"measurement": "glycan array binding signal (z-score)", "setting": "[30]", "result": -0.472}
    ]}
  ]
}
